The campaign covered roughly 410,000 compounds. About 5,000 (1.2%) were called active. The inconclusive results got no clear call from the source; some entries with a clear call stand among them for comparison. The call rests on the fitted dose curve; in most records, active means well fitted inhibition curve with a large enough effect; inconclusive means small, poorly fitted or top-dose-only effect; inactive means no such curve, though single readings can be large or run the other way. Potencies of inconclusive entries are doubtful fits and often do not repeat.
Assay: qHTS for Inhibitors of TGF-b; further: nearly all actives have a fitted effect of over 65% in size
Settings: HepG2 CAGA-GFP TGF-b/SMAD3 reporter, GFP fluorescence, 18 h, TGF-beta stimulated, 500 pg/mL final; series mostly up to 46.1 µM
In short: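 Read-out: total well GFP (ex488/em500-530) summed from mean per-cell fluorescence. Cells: HEPG2 CAGA-GFP, 1% FBS DMEM, 18 h at 37 degrees C with 500 pg/mL final TGF-beta. Unstimulated wells served as the full-inhibition control; stimulated DMSO wells = 0%.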
Potency means the concentration at half of the fitted maximal effect; tags describe the fitted curve by direction and shape.

Row | SMILES | Potency
1 | COc1ccc(/C=N/NC(=O)COc2ccccc2-c2ccccc2)cc1 | inconclusive: 22.4 µM [inhibitor, single point]
2 | CCS(=O)(=O)c1c([N+](=O)[O-])ncn1C | active: 17.8 µM
3 | O=C(CSc1cccc2cccnc12)OCC(=O)c1ccc(Br)cc1 | inactive
4 | CCC(Sc1ncccn1)C(=O)Nc1cc(C)on1 (stereo unspecified) | inactive
5 | S=C(NCCCc1cnc[nH]1)NCCCN(CCc1ccc(Cl)cc1)c1ccc(Br)cn1 | inconclusive: 11.2 µM [inhibitor, partial curve, poor fit]
6 | Cc1c(NC(=O)CSc2nnc(C(C)N(C)C)n2-c2ccccc2)c(=O)n(-c2ccccc2)n1C (stereo unspecified) | inconclusive: 35.5 µM [inhibitor, single point]
7 | O=C(Cc1ccccc1)NC1CCN(Cc2ccccc2)CC1 | inconclusive: 1 µM [inhibitor, full curve, poor fit]
8 | Cc1cc(/C=N\NC(=O)CC(=O)NC2CCCCC2)c(C)n1-c1ccc(Cl)cc1 | inconclusive: 35.5 µM [inhibitor, single point]
9 | CCCCCNc1nc(N2CCCC2)c2c(c1C#N)CCN(C)C2 | inconclusive: 35.5 µM [inhibitor, single point]
10 | Clc1cccc(CN2CCSCC2)c1 | inactive
11 | O=C(Nc1cccc(C(F)(F)F)c1)N1CCC(c2nc(-c3ccc(F)cc3)no2)CC1 | inconclusive: 22.4 µM [inhibitor, single point]
12 | COc1ccc2c(c1)c(=O)c(Br)c(C)n2Cc1ccccc1 | inconclusive: 25.1 µM [inhibitor, single point]
13 | O=C(NC1CCCC1)c1ccc2c(=O)n(Cc3ccccc3)c(SCc3cccc([N+](=O)[O-])c3)nc2c1 | inconclusive: 25.1 µM [inhibitor, single point]
14 | Cc1cc(C)c2nc(-c3ccccn3)cc(C(=O)NCc3cc(C)n(C)n3)c2c1 | inactive
15 | O=C(CNC(=O)c1ccc(Br)cc1)OCC(=O)c1ccccc1 | inconclusive: 35.5 µM [inhibitor, single point]
16 | COc1ccc(C(=O)CC(Sc2ccccc2N)c2ccc(OC)cc2)cc1 (stereo unspecified) | inconclusive: 22.4 µM [inhibitor, single point]
17 | COc1ccccc1OCc1ccc(C(=O)Nc2ccc(Cl)cn2)o1 | inconclusive: 35.5 µM [inhibitor, single point]
18 | COc1cccc(-n2c(-c3ccccc3F)nc3c(cnn3-c3ccc(C)cc3)c2=O)c1 | inconclusive: 14.1 µM [inhibitor, partial curve]
19 | CC1CCc2c(sc(NC(=O)COC(=O)c3ccc(NC(=O)CC#N)cc3)c2C#N)C1 (stereo unspecified) | inactive
20 | Cc1cccc(NC(=O)/C(C#N)=C/c2ccc[nH]2)c1C | inactive
21 | COc1cc(Cc2nc3ccc(S(=O)(=O)N4CCOCC4)cc3[nH]2)cc(OC)c1OC | inconclusive: 5.01 µM [inhibitor, full curve, poor fit]
22 | Cc1cc(-c2nc3ccccc3s2)ccc1N | inconclusive: 0.112 µM [inhibitor, full curve, poor fit]

Row | SMILES | Potency
23 | COc1ccc(NC(=O)c2sc3nc4c(cc3c2N)CCCCCC4)cc1 | inconclusive: 35.5 µM [inhibitor, single point]
24 | CCOC(=O)C(Cc1ccccc1)NC(=O)CCc1c(C)nc2nc(C)nn2c1C (stereo unspecified) | inactive
25 | CCn1nc(C)c(/C=N/NC(=S)Nc2ccc(Cl)cc2Cl)c1C | inconclusive: 5.01 µM [inhibitor, single point]
26 | Cc1cc(C)c(NC(=O)CSc2nccn2-c2cccc(Cl)c2)c(C)c1 | inconclusive: 5.62 µM [inhibitor, partial curve, poor fit]
27 | COc1ccc(CNC(=O)CCC2N=C3c4ccccc4N=C(SCc4ccccc4F)N3C2=O)cc1 (stereo unspecified) | inactive
28 | Cc1ccc(O)c(/C=N/NC(=O)c2[nH]ncc2Br)c1 | inconclusive: 3.16 µM [inhibitor, partial curve]
29 | CCOc1cc(S(=O)(=O)NC2CCCCCC2)ccc1F | inconclusive: 3.16 µM [inhibitor, single point]
30 | COc1ccc(C)cc1NS(=O)(=O)c1ccc2c3c(cccc13)C(=O)N2 | inconclusive: 7.94 µM [inhibitor, partial curve]
31 | CN(C(=O)CSc1cc(C(=O)c2nccn2C)c2ccccc2n1)c1ccccc1 | active: 14.1 µM
32 | CCOC(=O)CSC1=Nc2ccccc2C2=NC(CCC(=O)NCc3ccc(OC)cc3)C(=O)N12 (stereo unspecified) | inconclusive: 35.5 µM [inhibitor, single point]
33 | CCN(CC)CCCN(C(=O)c1ccccc1F)c1nc(-c2ccc(OC)cc2)cs1 | inconclusive: 20 µM [inhibitor, single point]
34 | COc1ccc(C(=O)c2ccc3oc(-c4ccc(OC)cc4)c(-c4ccc(O)cc4)c3c2)cc1 | inconclusive: 11.2 µM [inhibitor, partial curve, poor fit]
35 | CC(C)CCN1CCC(Cc2ccccc2)(NC(=O)c2ccccc2)C1=O (stereo unspecified) | inactive
36 | O=S(=O)(Nc1nc2ccccc2s1)c1cnc(Cl)c(Br)c1 | inconclusive: 6.31 µM [inhibitor, single point]
37 | Cn1nnnc1SCC(=O)Nc1cccc(S(=O)(=O)N2CCCCC2)c1 | inconclusive: 35.5 µM [inhibitor, single point]
38 | Oc1c(C(c2ccccc2F)N2CCN(c3ccccc3F)CC2)sc2nc(-c3ccco3)nn12 (stereo unspecified) | inconclusive: 11.2 µM [inhibitor, partial curve, poor fit]
39 | COC(=O)c1cc2oc(C)cc2n1CC(=O)N(C)c1ccccc1 | inactive
40 | COc1cc2[nH]c3c(=O)n4c(nc3c2cc1OC)SCCC4 | inconclusive: 10 µM [inhibitor, partial curve, poor fit]
41 | NC(=O)CN1C(=O)NC2(CCCc3sccc32)C1=O (stereo unspecified) | inactive
42 | CCn1c(=O)cc(C(=O)OC)sc1=Nc1ccc(F)c(F)c1 | inconclusive: 28.2 µM [inhibitor, single point]
43 | CCc1nnc(NC(=O)C2Cc3ccccc3CN2S(=O)(=O)c2c(C)c(C)cc(C)c2C)s1 (stereo unspecified) | inconclusive: 7.08 µM [inhibitor, partial curve, poor fit]
44 | CC(C)(C)S(=O)N1Cc2cc(C(=O)NCc3ccc(Oc4ccccc4)cc3)nc(-c3cccc(-c4cc5ccccc5o4)c3)c2[C@@H]1CCO (stereo partly specified) | inconclusive: 12.6 µM [inhibitor, partial curve, poor fit]

Row | SMILES | Potency
45 | NC(COCc1ccccc1)c1csc(Nc2nccc(C(F)(F)F)n2)n1 (stereo unspecified) | inactive
46 | CCN(C[C@H]1N[C@@](Cc2ccccc2)(C(=O)OC)[C@H]2C(=O)N(Cc3ccccc3)C(=O)[C@@H]12)S(=O)(=O)c1ccc(OC)cc1 | inactive
47 | Cn1nc(C(=O)NC(C)(C)C)c2ccccc21 | inactive
48 | COc1cccc(-c2cnc3c(NC=O)cc(-c4ccccc4)cn23)c1 | active: 8.91 µM
49 | S=C1NC[C@H](Cc2ccccc2)N1CCc1cccc2ccccc12 | inconclusive: 35.5 µM [inhibitor, single point]
50 | CC(C)CNC(=O)NC(=O)COC(=O)c1ccccc1Sc1ccc(C(F)(F)F)cc1[N+](=O)[O-] | inconclusive: 20 µM [inhibitor, single point]
51 | Cc1ccc(S(=O)(=O)N2CCC(=O)N(CCOCc3cccc(C(F)(F)F)c3)CC2)cc1 | inconclusive: 0.794 µM [inhibitor, full curve, poor fit]
52 | CSc1cccc(NC(=O)C2CCCN(C(=O)c3cnn(-c4ccc(F)cc4)c3-n3cccc3)C2)c1 (stereo unspecified) | active: 17.8 µM
53 | O=C(CSc1cn(CC(=O)N2CCCCC2)c2ccccc12)NCc1ccc(F)cc1 | inconclusive: 35.5 µM [inhibitor, single point]
54 | Oc1ccccc1Oc1ncc(Br)c(N2CCOCC2)n1 | inconclusive: 3.98 µM [inhibitor, single point]
55 | CC(=O)O[C@@H]1[C@@H](O)CN[C@@H]1Cc1ccccc1 | inconclusive: 0.1 µM [inhibitor, full curve]
56 | CCCN(CCC)CCCNC(=O)C1CCN(c2nc3ccc(CC)cc3s2)CC1 | inconclusive: 20 µM [inhibitor, single point]
57 | CCOc1ccc(/C=C2\SC(=O)N(CCNC(=O)C3COc4ccccc4O3)C2=O)cc1OC (stereo unspecified) | inconclusive: 35.5 µM [inhibitor, single point]
58 | O=C(Nc1ccccc1N1CCCCC1)c1ccc(F)cc1 | inconclusive: 12.6 µM [inhibitor, single point]
59 | c1ccc(NC2=NCCN2CCC2CCCCC2)cc1 | inactive
60 | Cc1ccc(Cn2c(CN3CC(C)OC(C)C3)nc3c2c(=O)[nH]c(=O)n3C)cc1 (stereo unspecified) | inconclusive: 7.08 µM [inhibitor, partial curve, poor fit]
61 | CCOC(=O)C1=C(COC(=O)c2ccc([N+](=O)[O-])s2)NC(=O)NC1C (stereo unspecified) | active: 11.2 µM
62 | CCOc1cc(-c2c(C#N)c(N)nc3c2CCCC3C)ccc1O (stereo unspecified) | inconclusive: 35.5 µM [inhibitor, single point]
63 | Cc1c(-c2ccc(Cl)cc2)c(=O)oc2c(CN3CCN(CCO)CC3)c(O)ccc12 | inconclusive: 5.62 µM [inhibitor, full curve, poor fit]
64 | C/C(CC(=O)Nc1ccc(N(C)C)cc1)=N\NC(=O)c1ccccn1 | inactive
65 | COC(=O)c1ccc(NC(=O)CN2CCN(S(=O)(=O)c3ccc(Br)cc3)CC2)cc1 | inconclusive: 20 µM [inhibitor, single point]
66 | CCOc1ccccc1NS(=O)(=O)c1ccc2[nH]c3c(c2c1)CCCCC3 | inconclusive: 17.8 µM [inhibitor, single point]

Source: PubChem BioAssay AID588855 (National Center for Advancing Translational Sciences (NCATS), 2011)
